Source: PubChem BioAssay AID588342 (National Center for Advancing Translational Sciences (NCATS), 2011)
About 25,000 (6.9%) of roughly 360,000 compounds were called active. The inconclusive results got no clear call from the source; some entries with a clear call stand among them for comparison. Calls follow the shape of the dose curve; as a rule, active = well fitted inhibition curve with a large enough effect; inconclusive = small, poorly fitted or top-dose-only effect; inactive = flat fitted curve, though single readings scatter. Potencies of inconclusive entries are doubtful fits and often do not repeat.

These molecules were tested against Luciferin 4-monooxygenase (Photinus pyralis) (UniProt P08659) (assay: qHTS profiling assay for firefly luciferase inhibitor/activator using purifed enzyme and Km concentrations of substrates (counterscreen for miR-21 project)). Settings: purified FLuc, luminescence inhibition; series mostly up to 57.5 µM.
Summary of the method: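 Purified P. pyralis luciferase (10nM final) with 10uM D-luciferin and 10uM ATP (Km levels) in 50mM Tris acetate pH 7.5, 10mM Mg acetate, 0.01% Tween-20, 0.05% BSA; qHTS 6-point titration, ~60 µM downward; luminescence read.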
Also: nearly all actives have a fitted effect of over 55% in size.
Potency is read from the fitted curve at half-maximal effect; tags tell the direction and shape of the fitted curve.

UniProt P08659, sequence (P08659 whole entry, looked up): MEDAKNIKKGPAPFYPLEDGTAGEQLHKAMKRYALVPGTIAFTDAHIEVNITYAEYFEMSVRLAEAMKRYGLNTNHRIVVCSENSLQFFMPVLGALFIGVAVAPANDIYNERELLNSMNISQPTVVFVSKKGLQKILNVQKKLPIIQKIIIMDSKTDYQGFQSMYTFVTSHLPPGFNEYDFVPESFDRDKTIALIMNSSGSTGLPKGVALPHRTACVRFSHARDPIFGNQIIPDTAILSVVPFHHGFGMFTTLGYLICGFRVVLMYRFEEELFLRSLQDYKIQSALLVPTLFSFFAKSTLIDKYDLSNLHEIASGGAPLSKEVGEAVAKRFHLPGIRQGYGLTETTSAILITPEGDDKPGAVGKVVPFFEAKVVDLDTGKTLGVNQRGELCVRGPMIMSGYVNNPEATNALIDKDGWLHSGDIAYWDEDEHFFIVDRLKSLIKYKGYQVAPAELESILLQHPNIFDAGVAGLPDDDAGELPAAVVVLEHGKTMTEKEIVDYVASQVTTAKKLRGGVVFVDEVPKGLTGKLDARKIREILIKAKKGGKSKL

| SMILES | Potency |
| --- | --- |
| C=CCCC(=O)Nc1nc(C)c(-c2csc(Nc3cccc(OC)c3)n2)s1 | inconclusive: 37.9 µM [inhibitor, single point] |
| CCCOc1cccc(NC(=O)c2cc(C)oc2C)c1 | inconclusive: 21.3 µM [inhibitor, single point] |
| COC(=O)c1ccccc1NC(=S)NC(=O)COc1ccccc1Cl | inconclusive: 19 µM [inhibitor, single point] |
| O=C(N/N=C/C=C/c1ccccc1)c1cccc(Br)c1 | inconclusive: 21.3 µM [inhibitor, single point] |
| CC(Sc1ccc(Cl)cc1)C(=O)NNC(=O)c1ccccc1O (stereo not drawn) | inconclusive: 19 µM [inhibitor, partial curve, poor fit] |
| CCCC(=O)Nc1ccc(Nc2ccccc2)cc1 | inconclusive: 26.9 µM [inhibitor, single point] |
| CCc1ccc(C(=O)NNc2cc(Cl)ccc2Cl)cc1 | inconclusive: 37.9 µM [inhibitor, single point] |
| Cc1ccc(N2C(=O)NC3(CCCCC3)C2=O)cc1 | inconclusive: 23.9 µM [inhibitor, single point] |
| CC(/C=N/NC(=O)Cn1nccc1C)=C\c1ccc(C(C)C)cc1 | inconclusive: 21.3 µM [inhibitor, partial curve, poor fit] |
| Cc1ccc(NC(=O)c2ccc(Nc3ccccc3F)nc2)cc1 | inconclusive: 3.79 µM [inhibitor, full curve] |
| N/C(=N\OC(=O)CCCOc1ccccc1)c1ccccc1 | inconclusive: 21.3 µM [inhibitor, single point] |
| O=C(NC1CC(=O)N(c2ccc(Cl)cc2)C1)C1CC1 (stereo not drawn) | inactive |
| O=C(Cc1ccccc1)Nc1cc2c(cc1Cl)OCCCO2 | active: 16.9 µM |
| Cn1c(=O)c2c(ncn2CC(=O)Nc2cccc(C(F)(F)F)c2)n(C)c1=O | inactive |
| O=C(CCS(=O)(=O)c1ccccc1)Nc1nc2ccc(F)cc2s1 | inactive |
| Cc1oc(-c2ccccc2Cl)nc1CS(=O)(=O)CC(=O)N1CCOCC1 | inactive |
| CCOC(=O)c1cnc2c(C)c(-c3ccccc3)[nH]n2c1=O | inconclusive: 30.1 µM [inhibitor, single point] |
| COc1ccc(Cn2c(SCc3ccc(C(=O)NC4CCCC4)cc3)nc3cccnc32)cc1 | inactive |
| COc1cc(/C=N/NC(=O)c2cc(C3CC3)[nH]n2)ccc1O | inconclusive: 30.1 µM [inhibitor, partial curve, poor fit] |
| COC(=O)COc1ccc(-c2ccccc2)cc1C=O | inconclusive: 26.9 µM [inhibitor, single point] |
| Cc1c(C(=O)Nc2ccc(F)cc2)c2ccccn2c1CCc1ccncc1 | inconclusive: 10.7 µM [inhibitor, partial curve] |
| CC(C)(C)c1ccc(-c2nc3cc(NC(=O)c4cccc(Br)c4)ccc3o2)cc1 | inactive |
| CCOc1ccc(Nc2nc3cc(S(=O)(=O)CC)ccc3o2)cc1 | inconclusive: 21.3 µM [inhibitor, partial curve, poor fit] |
| Cc1ccc(SCC(=O)Nc2ccc(S(=O)(=O)Nc3ncccn3)cc2)cc1 | inconclusive: 30.1 µM [inhibitor, partial curve, poor fit] |
| COc1ccc(-n2ccn(CC(=O)NCCc3ccccc3)c(=O)c2=O)cc1OC | inactive |

| SMILES | Potency |
| --- | --- |
| CCN(CC)C(=O)c1sc(NC(=O)c2ccco2)c(C#N)c1C | inconclusive: 16.9 µM [inhibitor, partial curve, poor fit] |
| COC(=O)c1ccc(Cn2cc(C(F)(F)F)cc([N+](=O)[O-])c2=O)cc1 | inactive |
| Cc1[nH]n(-c2ccccc2)c(=O)c1N=Nc1cccc([N+](=O)[O-])c1 | active: 13.5 µM |
| COc1ccc(-c2cn(Cc3ccc(C(=O)NCc4ccc(C)cc4)cc3)c(C(C)N)n2)cc1 (stereo not drawn) | inconclusive: 23.9 µM [inhibitor, partial curve, poor fit] |
| CCc1ccc(Oc2c(C(F)(F)F)oc3c(CN4CCN(C)CC4)c(O)ccc3c2=O)cc1 | inactive |
| CC(=O)c1c(C)[nH]c(C(=O)CN2CCN(S(=O)(=O)c3ccccc3)CC2)c1C | inactive |
| Cc1ccc(NC(=O)Cn2nnc(-c3nc(-c4ccncc4)no3)c2N)cc1 | inactive |
| Cc1cc2c(cc1C)/C(=N/NC(=O)c1ccccn1)CCC2 | inconclusive: 26.9 µM [inhibitor, single point] |
| Cc1ccc(Cl)cc1N1CCN(C(=O)CCC(=O)Nc2ccc3nc(N4CCC(C)CC4)cc(C)c3c2)CC1 | inconclusive: 6.75 µM [inhibitor, partial curve, poor fit] |
| FC(F)Oc1ccc(NC(=S)Nn2cnnc2)cc1 | inconclusive: 37.9 µM [inhibitor, partial curve, poor fit] |
| CCCOc1ccc(CNC(=O)C(CC)n2nc(C)c3sc4ccccc4c3c2=O)cc1 (stereo not drawn) | inconclusive: 13.5 µM [inhibitor, partial curve] |
| COc1ccc(-c2cc3nc4n(c(=O)c3s2)CCC4)cc1 | active: 0.601 µM |
| COc1ccc(C(CNC(=O)c2cc3c(s2)CCC(C)C3)N2CCCC2)cc1 (stereo not drawn) | inconclusive: 21.3 µM [inhibitor, single point] |
| CCCOc1ccc(N/C=C/C(=O)C(C)(C)C)cc1 | active: 10.7 µM |
| COc1cccc(CN(C)C(=O)c2ccccc2Sc2ccccc2C#N)c1OC | active: 8.49 µM |
| O=C(CSCc1cccs1)N1CCCC1 | inconclusive: 26.9 µM [inhibitor, single point] |
| Cc1c(OCc2ccc([N+](=O)[O-])cc2)ccc2c3c(c(=O)oc12)CCC3 | inconclusive: 0.213 µM [inhibitor, partial curve, poor fit] |
| O=c1c(-c2ccc3c(c2)OCCO3)coc2cc(OC3OC(CO)C(O)C(O)C3O)ccc12 (stereo not drawn) | active: 10.7 µM |
| Cc1ccc(CNC(=O)C2CCN(c3nc4ccccc4n(C)c3=O)CC2)cc1 | inactive |
| Cn1cc(S(=O)(=O)N2CCCCCC2)cc1C(=O)N1CCN(c2cccc(Cl)c2)CC1 | inconclusive: 19 µM [inhibitor, partial curve, poor fit] |
| CCn1c(SCC(=O)O)nnc1-c1ccccc1OC | active: 13.5 µM |
| Cc1cccnc1Nc1nc(-c2ccc(O)cc2O)cs1 | active: 15.1 µM |
| Cc1ccn2cc(CCNS(=O)(=O)c3ccc4c(c3)OCCO4)nc2c1 | inactive |
| Cc1nc(-c2ccccc2)sc1-c1ccnn1C | active: 4.78 µM |
| CC(C)[C@H](NC(=O)[C@@H]1Cc2ccccc2CN1C(=O)OC(C)(C)C)C(=O)NCc1ccco1 | inactive |

| SMILES | Potency |
| --- | --- |
| O=[N+]([O-])c1ccc(N/N=C/c2ccccc2O)cc1 | active: 15.1 µM |
| COC(=O)[C@H](Cc1ccccc1)NC(=O)c1ccc2ccccc2n1 | active: 6.75 µM |
| CNc1snc(C)c1C(=O)OCC(=O)Nc1ccc(C)cc1F | inactive |
| Cc1ccc2oc(C(=O)N3CCN(c4cccc(C)n4)CC3)c(C)c2c1 | inconclusive: 19 µM [inhibitor, partial curve] |
| CCn1cc(C(=O)N2CCN(c3ccccc3F)CC2)c(=O)c2cc(S(=O)(=O)N(C)C3CCCCC3)ccc21 | inconclusive: 16.9 µM [inhibitor, partial curve, poor fit] |
| Cc1ccc2oc(-c3cccc(NC(=O)c4ccc(Br)o4)c3C)nc2c1 | active: 7.57 µM |
| O=C1c2ccccc2C(=O)N1CCC(=O)N1CCCc2ccccc21 | inconclusive: 26.9 µM [inhibitor, single point] |
| Nc1c(C(=O)c2ccc(Cl)cc2)sc2nsc(SCCN3CCOCC3)c12 | inactive |
| O=C(CCN1CCN(c2ccccc2)CC1)N/N=C/c1ccc(O)c(O)c1O | inconclusive: 37.9 µM [inhibitor, partial curve, poor fit] |
| O=C(Nc1ccc(F)cc1)c1c(Cl)nc2ccccn12 | inconclusive: 37.9 µM [inhibitor, partial curve, poor fit] |
| O=C(CCS(=O)(=O)c1cccs1)Nc1ccc(C(=O)NC2CCCC2)cc1 | inactive |
| CCOc1ccc(NC(=O)c2ccncc2)cc1 | inconclusive: 19 µM [inhibitor, partial curve, poor fit] |
| COc1ccc(-c2cc3ccc(O)c(CN4CCOCC4)c3oc2=O)cc1 | inconclusive: 19 µM [inhibitor, single point] |
| COc1ccc(CCNC(=O)COc2ccc(-c3ccc(C)cc3)cc2)cc1OC | inconclusive: 3.79 µM [inhibitor, partial curve, poor fit] |
| CC(=O)c1ccc(NC(=O)C2C3C=CC(C3=C(c3ccccc3)c3ccccc3)C2C(=O)O)cc1 (stereo not drawn) | inconclusive: 10.7 µM [inhibitor, partial curve] |
| CCc1ccc(OCC(=O)Nc2ccncc2)c(Br)c1 | active: 3.38 µM |
| Oc1ccccc1-c1cc(-c2cccc(F)c2)n[nH]1 | active: 5.36 µM |
| Cc1cccc(NC(=O)CSc2nc(-c3ccco3)nc3cc(=O)[nH]n23)c1 | inconclusive: 26.9 µM [inhibitor, partial curve, poor fit] |
| COc1cc(NC(=O)Cc2ccccc2)c(C(=O)O)cc1OC | inactive |
| COc1cc(NC(=O)c2ccccc2)ccc1NC(=O)c1cc2ccccc2o1 | inactive |
| CC(C)NC(=O)c1nc2ccccc2s1 | inconclusive: 37.9 µM [inhibitor, single point] |
| Cc1cc(C)cc(OCC(=O)Nc2cccc(C(=O)O)c2)c1 | active: 15.1 µM |
| CCc1cc2c(=O)c(-c3nc4ccccc4[nH]3)coc2c(CN2CCCCC2)c1O | inconclusive: 21.3 µM [inhibitor, partial curve, poor fit] |
